{
  "source": "PubChem BioAssay AID504332",
  "about": "(National Center for Advancing Translational Sciences (NCATS), 2011)",
  "note": "Out of some 350,000 compounds screened, about 31,000 (8.9%) were called active. Inconclusive results, whose numbers are uncertain, are shown with a selection of clear calls. Calls follow the shape of the dose curve; as a rule, active = well fitted inhibition curve with a large enough effect; inconclusive = small, poorly fitted or top-dose-only effect; inactive = no such curve, though single readings can be large or run the other way. Where the call is inconclusive, the potency comes from a doubtful curve fit. % is scaled to controls: 0 for no effect and ±100 for the full control effect; potency is read from the fitted curve at half-maximal effect; tags tell the direction and shape of the fitted curve.",
  "data": [
    {"biological_target": "Histone-lysine N-methyltransferase EHMT2 (Homo sapiens) (UniProt Q96KQ7)", "sequence (Q96KQ7 whole entry, looked up)": "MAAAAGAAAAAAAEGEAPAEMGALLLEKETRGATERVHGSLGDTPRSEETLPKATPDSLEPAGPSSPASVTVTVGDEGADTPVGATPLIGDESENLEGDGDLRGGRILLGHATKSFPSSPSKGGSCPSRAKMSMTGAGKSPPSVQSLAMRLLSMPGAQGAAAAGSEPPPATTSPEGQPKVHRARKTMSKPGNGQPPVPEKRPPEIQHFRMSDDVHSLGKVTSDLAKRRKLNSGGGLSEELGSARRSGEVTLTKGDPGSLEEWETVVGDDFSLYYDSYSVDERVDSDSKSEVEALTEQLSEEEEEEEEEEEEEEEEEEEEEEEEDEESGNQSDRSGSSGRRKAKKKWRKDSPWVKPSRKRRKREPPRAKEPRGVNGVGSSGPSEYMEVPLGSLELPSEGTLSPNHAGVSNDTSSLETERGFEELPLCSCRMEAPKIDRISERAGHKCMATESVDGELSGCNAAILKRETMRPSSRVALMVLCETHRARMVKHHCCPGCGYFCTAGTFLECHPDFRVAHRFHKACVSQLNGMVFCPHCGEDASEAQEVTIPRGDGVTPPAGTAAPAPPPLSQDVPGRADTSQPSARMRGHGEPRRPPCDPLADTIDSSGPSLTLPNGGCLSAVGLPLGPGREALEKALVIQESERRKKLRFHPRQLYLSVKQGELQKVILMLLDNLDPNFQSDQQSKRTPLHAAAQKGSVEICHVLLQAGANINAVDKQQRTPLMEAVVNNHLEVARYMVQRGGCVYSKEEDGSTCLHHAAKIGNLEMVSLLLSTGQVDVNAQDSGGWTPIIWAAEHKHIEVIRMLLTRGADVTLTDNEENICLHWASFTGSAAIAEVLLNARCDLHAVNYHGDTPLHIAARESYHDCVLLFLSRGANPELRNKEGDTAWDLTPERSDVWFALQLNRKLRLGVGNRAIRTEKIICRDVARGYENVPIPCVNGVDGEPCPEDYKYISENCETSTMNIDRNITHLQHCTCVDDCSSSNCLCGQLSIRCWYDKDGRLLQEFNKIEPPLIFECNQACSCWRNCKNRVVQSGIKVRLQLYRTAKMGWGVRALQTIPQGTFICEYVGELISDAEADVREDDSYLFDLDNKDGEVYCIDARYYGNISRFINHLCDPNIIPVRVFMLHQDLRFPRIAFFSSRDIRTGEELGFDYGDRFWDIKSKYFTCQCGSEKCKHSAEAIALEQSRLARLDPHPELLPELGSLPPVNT", "assay": "qHTS Assay for Inhibitors of Histone Lysine Methyltransferase G9a; also: nearly all actives have a fitted effect of over 75% in size", "conditions": "G9a H3K9 monomethylation, AlphaScreen, 2 h; activity, negative = inhibition: at 59 µM (top of the series) unless noted", "method_in_brief": "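Signal arises when biotinylated H3K9 peptide, once monomethylated, bridges streptavidin donor and antibody-captured acceptor beads. Enzyme at 20 nM was preincubated 15 min with test compounds; peptide 500 nM and SAM 20 uM then reacted for 2 h.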", "values": [
      {"compound": "COc1ccc(/C=C/C(=O)NCCN2CCOCC2)cc1OC", "Potency": "inconclusive: 31.6 µM [inhibitor, full curve]"},
      {"compound": "COC(=O)C1=C(N)Oc2cc(C)n(Cc3ccco3)c(=O)c2C1c1cccc(Cl)c1", "note": "(stereo not given)", "Potency": "inconclusive: 10 µM [inhibitor, partial curve, poor fit]"},
      {"compound": "O=C(NCCN1CCN(c2ccccc2)CC1)Nc1ccccc1Br", "Potency": "inactive"},
      {"compound": "O=C(CCCCCNc1nc(=S)[nH]c2ccccc12)NCCC1=CCCCC1", "activity, negative = inhibition": "inactive: 9.96% [at 102 µM]"},
      {"compound": "Cc1ccc(Sc2c(C)nn(C(=O)COc3ccc(F)cc3)c2C)cc1", "activity, negative = inhibition": "inactive: -13%"},
      {"compound": "Cc1onc(-c2ccccc2)c1-c1ccc(S(N)(=O)=O)cc1", "Potency": "inactive"},
      {"compound": "CCCCC/C=N/NC(=O)c1[nH]c2ccc([N+](=O)[O-])cc2c1C", "Potency": "inconclusive: 39.8 µM [inhibitor, partial curve, poor fit]"},
      {"compound": "CC(C)(C)c1ccccc1OCC(O)CN1CCN(c2ccccn2)CC1", "note": "(stereo not given)", "Potency": "inconclusive: 79.4 µM [inhibitor, single point]"},
      {"compound": "COc1ccc(CC(=O)NC(C)c2nnc(SCC(=O)c3ccc(Br)cc3)n2C)cc1", "note": "(stereo not given)", "Potency": "active: 39.8 µM"},
      {"compound": "Cc1cccc(NS(=O)(=O)c2cccc3cccnc23)n1", "Potency": "inconclusive: 39.8 µM [inhibitor, single point]"},
      {"compound": "Cc1cc2c(c(=O)o1)C(CC(C)C)C(C#N)=C(N)O2", "note": "(stereo not given)", "Potency": "inconclusive: 89.1 µM [inhibitor, single point]"},
      {"compound": "CC(=O)c1ccc(NC(=O)C2CCCN(c3ncnc4c3nc3n4CCCCC3)C2)cc1", "note": "(stereo not given)", "Potency": "inconclusive: 50.1 µM [inhibitor, partial curve, poor fit]"},
      {"compound": "CCC(C)(C)n1nnnc1C(C(C)C)N1CCN(C(=O)c2ccco2)CC1", "note": "(stereo not given)", "activity, negative = inhibition": "inactive: -8.25% [at 102 µM]"},
      {"compound": "COc1ccc(CNC(=O)c2c(C)oc3c2C(=O)c2ccccc2C3=O)cc1", "Potency": "active: 11.2 µM"},
      {"compound": "COc1ccc(NS(=O)(=O)c2cc(Br)cc3c2N(C(C)=O)CC3)cc1", "activity, negative = inhibition": "inactive: -14.1% [at 102 µM]"},
      {"compound": "CC(C)(C)CNC(CO)C12CC3CC(CC(C3)C1)C2", "note": "(stereo not given)", "Potency": "inconclusive: 2 µM [inhibitor, full curve, poor fit]"},
      {"compound": "CN(c1ccc(F)cc1)S(=O)(=O)c1ccc(Cl)c(C(=O)Nc2ccc3c(c2)CCC3)c1", "Potency": "inconclusive: 79.4 µM [inhibitor, single point]"},
      {"compound": "CCN(c1ccc(C)cc1)S(=O)(=O)c1nnc(NC(=O)c2ccco2)s1", "Potency": "inconclusive: 89.1 µM [inhibitor, single point]"},
      {"compound": "O=S(=O)(c1ccccc1)c1cc(O)ccc1O", "Potency": "active: 50.1 µM"},
      {"compound": "O=C(NCC(c1cccs1)N1CCOCC1)c1cccc([N+](=O)[O-])c1", "note": "(stereo not given)", "Potency": "inconclusive: 56.2 µM [inhibitor, partial curve, poor fit]"}
    ]}
  ]
}
